{"source": "PubChem BioAssay AID588855", "about": "(National Center for Advancing Translational Sciences (NCATS), 2011)", "note": "The whole screen tested about 410,000 compounds, of which about 5,000 (1.2%) were called active. Inconclusive means that the source gave no clear call. Such entries were picked first, then a sample of the others. Calls follow the shape of the dose curve; as a rule, active = well fitted inhibition curve with a large enough effect; inconclusive = small, poorly fitted or top-dose-only effect; inactive = no such curve, though single readings can be large or run the other way. A potency beside an inconclusive call is a rough fit, not a confirmed value. Potency is read from the fitted curve at half-maximal effect; tags tell the direction and shape of the fitted curve.", "data": [{"test": "qHTS for Inhibitors of TGF-b; also: nearly all actives have a fitted effect of over 65% in size", "conditions": "HepG2 CAGA-GFP TGF-b/SMAD3 reporter, GFP fluorescence, 18 h, TGF-beta stimulated, 500 pg/mL final; series mostly up to 46.1 µM", "method_in_brief": "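HEPG2 CAGA-GFP cells (1000/well, DMEM with 1% FBS) were pre-incubated 2 h at 37 degrees C, given compound by pin tool, then stimulated with TGF-beta at 500 pg/mL final for 18 h before per-cell GFP fluorescence imaging.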", "values": [{"smiles": "CCC(Cc1ccccc1)NC(=O)c1cccc(Nc2nc3ccccc3nc2-n2nc(C)cc2C)c1", "note": "(stereo unspecified)", "Potency": "inactive"}, {"smiles": "Cc1cccc(C(=O)Nc2nsc(N)n2)c1", "Potency": "inactive"}, {"smiles": "FC(F)(F)c1nc2ccccc2c2nc3ccccc3n12", "Potency": "inactive"}, {"smiles": "COc1ccc(C(=O)NCc2ccc3c(c2)CCN3C(=O)c2ccc(Cl)cc2)c(OC)c1", "Potency": "inconclusive: 14.1 µM [inhibitor, partial curve, poor fit]"}, {"smiles": "Cc1ccc(C(C)(C)C)cc1S(=O)(=O)Nc1cccc(C(=O)N2CCN(c3ccccn3)CC2)c1", "Potency": "active: 28.2 µM"}, {"smiles": "COc1cc(C=O)ccc1OC(=O)Nc1ccccc1", "Potency": "inactive"}, {"smiles": "CCCc1nccn1S(=O)(=O)c1cc(OC)ccc1OC", "Potency": "inconclusive: 6.31 µM [inhibitor, single point]"}, {"smiles": "CCC1CCCCN1S(=O)(=O)c1ccc(C(=O)Nc2nnc(-c3cccs3)o2)cc1", "note": "(stereo unspecified)", "Potency": "inconclusive: 10 µM [inhibitor, partial curve, poor fit]"}, {"smiles": "CN1C(=O)c2ccccc2Sc2ccc(NC(=O)N3CCN(c4cccc(Cl)c4)CC3)cc21", "Potency": "inconclusive: 8.91 µM [inhibitor, partial curve, poor fit]"}, {"smiles": "Clc1ccc(CNc2ncnc3onc(-c4ccc(Cl)cc4)c23)cc1", "Potency": "inconclusive: 10 µM [inhibitor, partial curve]"}, {"smiles": "CC(=O)N1CC2(CC(c3ccc(Cl)cc3Cl)=NO2)CN1c1cccc(Cl)c1", "note": "(stereo unspecified)", "Potency": "inconclusive: 35.5 µM [inhibitor, single point]"}, {"smiles": "CC(=O)c1ccc(-c2[nH]c3ccccc3c2CCN2C(=O)c3ccccc3C2=O)cc1", "Potency": "inactive"}, {"smiles": "COc1ccc(Cl)cc1-c1nc(-c2ccncc2)no1", "Potency": "inactive"}, {"smiles": "O=C(NCCSc1ccc(Cl)cc1)c1ccco1", "Potency": "inactive"}, {"smiles": "CC1Cc2ccccc2N1CC(=O)NC(c1ccccc1)c1ccccc1", "note": "(stereo unspecified)", "Potency": "inconclusive: 35.5 µM [inhibitor, single point]"}, {"smiles": "O=C(NC12CC3CC(CC(C3)C1)C2)c1ccc([N+](=O)[O-])o1", "Potency": "inconclusive: 20 µM [inhibitor, single point]"}, {"smiles": "CCc1nccn1S(=O)(=O)c1cc(Br)ccc1Br", "Potency": "inactive"}, {"smiles": "O=C1C=C(c2cccc(Cl)c2)C[C@@H](c2ccc3c(c2)OCO3)C1", "Potency": "inconclusive: 25.1 µM [inhibitor, single point]"}, {"smiles": "COC(=O)c1ccc2c(c1)N(CC(=O)Nc1ccc(C)cc1Cl)C(=O)c1ccccc1S2", "Potency": "inactive"}, {"smiles": "CCc1ccc(C(=O)/C=C/c2ccc([N+](=O)[O-])o2)cc1", "Potency": "inconclusive: 5.62 µM [inhibitor, partial curve, poor fit]"}, {"smiles": "COc1ccc(C(=O)C2CCCN(Cc3cc(Cl)ccc3O)C2)c(OC)c1", "note": "(stereo unspecified)", "Potency": "inconclusive: 25.1 µM [inhibitor, single point]"}, {"smiles": "O=C(c1ccccc1-c1nc(-c2ccc(Cl)cc2)no1)N1CCCC1", "Potency": "inconclusive: 11.2 µM [inhibitor, single point]"}, {"smiles": "CC(C)(C)Nc1nc(N2CCCC2)nc(N2CCCC2)n1", "Potency": "inconclusive: 10 µM [inhibitor, partial curve, poor fit]"}, {"smiles": "Cn1c(C(=O)N[C@@H](Cc2ccccc2)C(=O)O)cc2cc(Cl)ccc21", "Potency": "inconclusive: 10 µM [inhibitor, partial curve]"}, {"smiles": "CC1(C)Oc2ccc3ccc(=O)oc3c2/C(=C/Nc2cccc(O)c2)C1=O", "Potency": "inconclusive: 22.4 µM [inhibitor, single point]"}, {"smiles": "COc1ccc(C2CC(c3ccccc3)n3nc(NC(=O)c4cccs4)nc3N2)cc1", "note": "(stereo unspecified)", "Potency": "inactive"}, {"smiles": "CCN(CC(=O)Nc1ccc(OC)cc1)CC(=O)Nc1sc2c(c1C(=O)OC)CCCC2", "Potency": "inconclusive: 35.5 µM [inhibitor, single point]"}, {"smiles": "COCCCN(C(=S)Nc1c(C)cc(C)cc1C)C(C)c1ccncc1", "note": "(stereo unspecified)", "Potency": "inconclusive: 15.8 µM [inhibitor, single point]"}, {"smiles": "COc1ccc(CN(CCN(C)C)Cc2ccccc2)c(OC)c1", "Potency": "inactive"}, {"smiles": "CC1CC(C)CN(C(=O)C(C)N2CCN(S(=O)(=O)c3ccc(C(F)(F)F)cc3)CC2)C1", "note": "(stereo unspecified)", "Potency": "inconclusive: 35.5 µM [inhibitor, single point]"}, {"smiles": "CCOC(=O)c1cc2[nH]c3ccccc3c2[n+](-c2ccc([N+](=O)[O-])cc2)c1C", "Potency": "inactive"}, {"smiles": "Cc1nn(-c2ccccc2)c(N)c1N=Nc1ccc(Cl)cc1", "Potency": "inconclusive: 12.6 µM [inhibitor, single point]"}, {"smiles": "Cc1cc(Cl)ccc1OCCSc1nnc(-c2cccs2)o1", "Potency": "inconclusive: 31.6 µM [inhibitor, single point]"}, {"smiles": "O=C(NC12CC3CC(CC(C3)C1)C2)OCCNC1CCCCC1", "Potency": "inconclusive: 1.26 µM [inhibitor, partial curve, poor fit]"}, {"smiles": "Cc1ccc(-c2nc(-c3ccccn3)sc2CC(=O)O)cc1", "Potency": "inactive"}, {"smiles": "CCOC(=O)c1nc(N/N=C/c2ccccc2)sc1Br", "Potency": "inconclusive: 35.5 µM [inhibitor, single point]"}, {"smiles": "COc1cc(NC(=O)c2ccccc2Cl)c2ncccc2c1", "Potency": "inconclusive: 22.4 µM [inhibitor, single point]"}, {"smiles": "CCOC(=O)C1(Cc2cccc(F)c2)CCN(Cc2ccon2)CC1", "Potency": "inactive"}, {"smiles": "Cc1c(C(C)C)c(=O)n(-c2ccc(S(=O)(=O)NC3CCCCC3)cc2)n1C", "Potency": "inactive"}, {"smiles": "Cc1ccc(C)c(Nc2nc3nonc3nc2N2CCOCC2)c1", "Potency": "inconclusive: 35.5 µM [inhibitor, single point]"}, {"smiles": "O=C(CN1C(=O)c2cccc([N+](=O)[O-])c2C1=O)N1CCc2ccccc2C1", "Potency": "inactive"}, {"smiles": "O=C(COc1ccccc1Cl)Nc1ccc2nc(SCC(=O)N3CCOCC3)sc2c1", "Potency": "inactive"}, {"smiles": "Cc1ccc(C2=CC(=O)C[C@H](c3ccc(Cl)cc3)C2)cc1", "Potency": "inconclusive: 6.31 µM [inhibitor, partial curve, poor fit]"}, {"smiles": "CC(=O)c1ccc(NC(=O)Cn2cnc(S(=O)(=O)N3CCCCC3)c2)cc1", "Potency": "inactive"}, {"smiles": "CCOC(=O)c1c2n(c3ccc(O)cc13)CCC2", "Potency": "inconclusive: 6.31 µM [inhibitor, single point]"}, {"smiles": "COc1ccc(C(CNC(=O)c2ccccc2SC)N(C)C)cc1", "note": "(stereo unspecified)", "Potency": "inconclusive: 22.4 µM [inhibitor, single point]"}, {"smiles": "Cc1ccc(/C=N/NC(=S)Nc2cccc(S(=O)(=O)N(C)C)c2)o1", "Potency": "inconclusive: 1.58 µM [inhibitor, partial curve, poor fit]"}, {"smiles": "NS(=O)(=O)c1ccc(CNC(=S)NC2CCCCC2)cc1", "Potency": "inactive"}, {"smiles": "N#CC1=C(N)N2C(=C(C#N)C1c1ccc(Br)cc1)Nc1ccccc12", "note": "(stereo unspecified)", "Potency": "active: 2.82 µM"}, {"smiles": "COc1ccc(-c2cc(C(F)(F)F)nc(SCC(=O)N(C)Cc3ccccc3)n2)cc1", "Potency": "inconclusive: 25.1 µM [inhibitor, partial curve, poor fit]"}, {"smiles": "O=C(NCCc1ccc(Cl)cc1)c1cc2c(s1)-c1ccccc1OC2", "Potency": "inactive"}, {"smiles": "CC(C)c1ccc(C2NC(=O)NC3=C2CCc2ccccc23)cc1", "note": "(stereo unspecified)", "Potency": "inconclusive: 2.82 µM [inhibitor, single point]"}, {"smiles": "CCCC(c1nnnn1Cc1ccc(OC)cc1)N1CCC(C(N)=O)CC1", "note": "(stereo unspecified)", "Potency": "inactive"}, {"smiles": "Cc1ccc(-c2nn(-c3ccccc3)cc2CSC(=N)N)cc1", "Potency": "inconclusive: 25.1 µM [inhibitor, single point]"}, {"smiles": "N#Cc1cc(-c2ccccc2)nc(NN)n1", "Potency": "inconclusive: 35.5 µM [inhibitor, single point]"}, {"smiles": "O=C(COC(=O)C1C2CC3OC(=O)C1C3C2)Nc1ccc(F)cc1", "note": "(stereo unspecified)", "Potency": "inconclusive: 1.12 µM [inhibitor, full curve, poor fit]"}, {"smiles": "COc1ccccc1CNC(=O)CSc1nc(C)cs1", "Potency": "inactive"}, {"smiles": "Cc1cccc(NC(=O)c2ccc(Cn3nc(N4CCN(c5ccccc5)CC4)ccc3=O)o2)c1C", "Potency": "inconclusive: 11.2 µM [inhibitor, partial curve, poor fit]"}, {"smiles": "O=C(Nc1cc(OC(=O)C(F)(F)F)c2nonc2c1OC(=O)C(F)(F)F)C(F)(F)F", "Potency": "inconclusive: 28.2 µM [inhibitor, single point]"}, {"smiles": "COc1ccccc1C(=O)N1CCN(C(=O)c2oc3c(C)c(C)ccc3c2C)CC1", "Potency": "inactive"}, {"smiles": "COc1cccc(C(=O)Nc2nc(C)cs2)c1", "Potency": "inactive"}, {"smiles": "Cc1cc(Nc2ccccc2)c2c([N+](=O)[O-])cc(C)c(C)c2n1", "Potency": "inconclusive: 35.5 µM [inhibitor, single point]"}, {"smiles": "CCC1(c2ccccc2)NC(=O)N(CC(=O)Nc2cc(S(=O)(=O)N3CCCCCC3)ccc2OC)C1=O", "note": "(stereo unspecified)", "Potency": "inconclusive: 2.82 µM [inhibitor, partial curve, poor fit]"}, {"smiles": "COc1cccc2c1C(=O)c1c(O)c3c(c(O)c1C2=O)CC(O)(C(C)=O)CC3OC1CC(N(C)C)C(O)C(C)O1", "note": "(stereo unspecified)", "Potency": "active: 0.794 µM"}, {"smiles": "Cc1ccc(C(C)C)c(OCCCN2CC(C)OC(C)C2)c1", "note": "(stereo unspecified)", "Potency": "inconclusive: 35.5 µM [inhibitor, single point]"}, {"smiles": "CCC1CN(C(=O)N2CCC(C(=O)NCc3cccc(F)c3)CC2)c2cc(C)ccc2O1", "note": "(stereo unspecified)", "Potency": "inconclusive: 25.1 µM [inhibitor, partial curve, poor fit]"}, {"smiles": "O=C(NNC(=O)c1ccccc1OCc1ccccc1Cl)c1csc(N2CCOCC2)n1", "Potency": "inconclusive: 20 µM [inhibitor, single point]"}, {"smiles": "O=C(CSc1cn(CC(=O)N2CCCCC2)c2ccccc12)NCc1ccccc1Cl", "Potency": "inactive"}, {"smiles": "Cc1ccc(NC(=O)CN(C)CC(=O)Nc2sc3c(c2C(N)=O)CCC3)cc1", "Potency": "inconclusive: 35.5 µM [inhibitor, single point]"}, {"smiles": "O=S1(=O)C2CC3C=CC2(O3)C(O)C(Cc2ccccc2)N1Cc1cccc(F)c1", "note": "(stereo unspecified)", "Potency": "inconclusive: 35.5 µM [inhibitor, single point]"}, {"smiles": "COc1ccc(NS(=O)(=O)c2cccc(NC(=O)CCC(=O)c3ccc(Cl)cc3)c2)cc1", "Potency": "active: 10 µM"}]}]}
